Test results as given in PubChem BioAssay AID485294 (National Center for Advancing Translational Sciences (NCATS), 2010).
In all, about 370,000 compounds went through this assay and about 150 (0.041%) were called active. Inconclusive means that the source gave no clear call. Such entries were picked first, then a sample of the others. Calls follow the shape of the dose curve; as a rule, active = well fitted inhibition curve with a large enough effect; inconclusive = small, poorly fitted or top-dose-only effect; inactive = flat fitted curve, though single readings scatter. No potency is given beside an inconclusive call; the fits are too rough.

target: Beta-lactamase (Escherichia coli (strain K12)) (UniProt P00811); test: qHTS Inhibitors of AmpC Beta-Lactamase (assay with detergent); conditions: AmpC hydrolysis of nitrocefin, absorbance 480 nm, 0.01% Triton; activity change, negative = inhibition: at 114 µM (top of the series); also: nearly all actives have a fitted effect of over 25% in size;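 as to activity change, negative = inhibition: 0% = no-compound wells and -100% = no-enzyme wells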
In short: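 20 mM phosphate pH 7.0 + 0.01% (detergent screen) or 0.0001% Triton X-100; 5.3 nM AmpC reagent; cpd preinc 15 min RT; nitrocefin (800 uM stock) to start; A480 q20 s × 4 min; Activity was normalised to no-enzyme and no-compound control wells.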
Potency is read from the fitted curve at half-maximal effect; tags tell the direction and shape of the fitted curve.

Chain of UniProt P00811 (P00811 whole entry, looked up): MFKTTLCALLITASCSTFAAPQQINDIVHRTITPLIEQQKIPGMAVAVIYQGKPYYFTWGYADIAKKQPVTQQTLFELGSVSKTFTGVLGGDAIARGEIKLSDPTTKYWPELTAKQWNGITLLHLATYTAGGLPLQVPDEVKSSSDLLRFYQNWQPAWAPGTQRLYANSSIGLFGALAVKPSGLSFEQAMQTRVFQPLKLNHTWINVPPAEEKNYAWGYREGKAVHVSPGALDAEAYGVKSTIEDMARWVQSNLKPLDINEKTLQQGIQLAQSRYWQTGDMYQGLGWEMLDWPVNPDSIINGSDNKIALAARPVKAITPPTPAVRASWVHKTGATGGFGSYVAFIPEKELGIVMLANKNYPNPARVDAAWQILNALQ

| Compound | Potency | activity change, negative = inhibition |
| --- | --- | --- |
| COc1ccc(OCC(=O)N2CCN(Cc3c[nH]c4ccccc34)CC2)cc1 | inconclusive [inhibitor, partial curve] |  |
| O=C(NN1C(=O)c2ccccc2NC1c1ccoc1)c1ccc([N+](=O)[O-])cc1 (configuration not stated) | inconclusive [inhibitor, partial curve] |  |
| Cc1ccc(NC(=O)c2cccc(Oc3ccc([N+](=O)[O-])cc3)c2)c(C(=O)O)c1 |  | inactive: 1.28% |
| Cc1ccc(NC(=O)c2sc(=S)n(-c3cc(C)ccc3F)c2N)cc1 | inconclusive [inhibitor, single point] |  |
| O=C(C1CCCN(S(=O)(=O)c2cccc3nsnc23)C1)N1CCCCCC1 (configuration not stated) | inconclusive [inhibitor, full curve, poor fit] |  |
| COCc1ccc(CN2CCCC(C(=O)Nc3ccc(-c4cccc(OC)c4)cc3)C2)o1 (configuration not stated) |  | inactive: -7.7% |
| CN1CCN(C(=O)c2cnn3c(C(F)F)cc(C4CC4)nc23)CC1 | inconclusive [inhibitor, full curve, poor fit] |  |
| N#CC1=C(N)Oc2n[nH]c(-c3cccs3)c2C1c1ccco1 (configuration not stated) | inconclusive [inhibitor, partial curve, poor fit] |  |
| CCCC(=O)NC(c1cccs1)c1cc([N+](=O)[O-])c2cccnc2c1O (configuration not stated) | inconclusive [inhibitor, single point] |  |
| COc1ccc(Cn2nnnc2CN2CCC(c3nc4ccccc4s3)CC2)cc1 | inconclusive [inhibitor, partial curve, poor fit] |  |
| COc1ccc(/C=N/NC(=O)c2nc(-c3ccccc3)cc(-c3ccccc3)n2)cc1OC | inconclusive [inhibitor, partial curve] |  |
| CCc1ccc(NC2=CC(=O)CC(c3ccco3)C2)cc1 (configuration not stated) | inconclusive [inhibitor, partial curve, poor fit] |  |
| CCC(=O)NC(=S)Nc1cccc(-c2nc3ncccc3o2)c1 | inconclusive [inhibitor, full curve] |  |
| COc1cc2ccccc2cc1C(=O)Nc1cc(-c2nc3ccccc3o2)ccc1C |  | inactive: 11.4% |
| CC1Oc2ccccc2OC1C(=O)Nc1nccs1 (configuration not stated) |  | inactive: 7% |
| NC(=O)c1sc2nc3c(c(-c4cccs4)c2c1N)CCCCC3 |  | inactive: -14.4% |
| CC/C(=N\O)c1c(O)c2c(n(-c3ccccc3)c1=O)CCCC2 | inconclusive [inhibitor, full curve, poor fit] |  |
| Cc1cc(C)c2oc(C(=O)Nc3nnc(C(C)C)s3)cc(=O)c2c1 | inconclusive [inhibitor, single point] |  |
| COc1ccc(/C=C/C(=O)NCc2cn(C)nc2C)cc1COc1ccc(Br)cc1 |  | inactive: -10% |
| Cc1cc[n+](Cc2ccccc2)c(N)c1 | inconclusive [inhibitor, full curve, poor fit] |  |
| O=C(c1ccco1)N1CCN(S(=O)(=O)c2cccc3nsnc23)CC1 | inconclusive [inhibitor, full curve, poor fit] |  |
| NC(CC(=O)O)C1CCCCC1 (configuration not stated) | inconclusive [inhibitor, single point] |  |
| CC(C)(C)C(=O)NCc1ccc(C(=O)CSc2nnc(C3CC3)n2C2CC2)s1 | inconclusive [inhibitor, full curve] |  |

| Compound | Potency | activity change, negative = inhibition |
| --- | --- | --- |
| C#CCOCCOCCOCCNc1nc(N2CCN(C(=O)CCCCCCCCCCNC(=O)[C@H](CCCCN)n3cc(C[C@@H](C)CC)nn3)CC2)nc(N2CCN(C(=O)CCCCCCCCCCNC(=O)[C@H](CCCN=C(N)N)n3cc(C[C@@H](C)CC)nn3)CC2)n1 | inconclusive [inhibitor, single point] |  |
| CC(=O)N(C)c1ccc(NC(=S)NCC(C)C)cc1 |  | inactive: -6.99% |
| CCN(CC)C(=O)c1sc2c(c1C)c(=O)n(-c1ccc(C)c(C)c1)c(=O)n2Cc1cc(=O)n2c(C)cccc2n1 |  | inactive: 3.09% |
| Cc1cc(S(=O)(=O)NCc2ccccc2)ccc1OCC(=O)NCc1ccccn1 |  | inactive: -0.285% |
| CCCC(C)C1(CC)C(=O)NC(=Nc2ccccc2)NC1=O (configuration not stated) | inconclusive [inhibitor, full curve, poor fit] |  |
| COc1cccc(CCc2nnc(CCC(=O)NC(C)Cc3cccs3)o2)c1 (configuration not stated) |  | inactive: -8.69% |
| CC1CCN(Cc2ccc(NC(=O)C3CCN(c4nnc(-n5cccc5)s4)CC3)cc2)CC1 | inconclusive [inhibitor, full curve, poor fit] |  |
| CCSc1nsc(NC(=O)Nc2ccccc2OC)n1 | inconclusive [inhibitor, full curve, poor fit] |  |
| Cc1cc(C)c(NC(=O)CNC(=O)[C@@H]2CCCN2C(=O)c2cccs2)c(C)c1 | inconclusive [inhibitor, full curve, poor fit] |  |
| Cc1cccc(/C(N)=N/OC(=O)c2ccc3c(c2)OCO3)c1 |  | inactive: -12.3% |
| COc1ccc(CN(CCC(c2ccccc2)c2ccc(OC(C)C)cc2)C(=O)CCl)cc1OC (configuration not stated) | inconclusive [inhibitor, full curve] |  |
| COc1ccc(S(=O)(=O)Nc2cccc(-c3ccc(N4CCCCCC4)nn3)c2)cc1 |  | inactive: -5.61% |
| CCOC(=O)c1ccc(NC(=O)CC2SC(=NC)N(C)C2=O)cc1 (configuration not stated) |  | inactive: 1.92% |
| O=C(CSc1nc(=O)n2ccccc2n1)Nc1ccc2c(c1)OCCO2 | inconclusive [inhibitor, single point] |  |
| CCN1CCN(S(=O)(=O)Cc2ccccc2)CC1 | inconclusive [inhibitor, partial curve] |  |
| O=C(O)c1ccc(S(=O)(=O)N2CCCCCC2)cc1 | inconclusive [inhibitor, full curve, poor fit] |  |
| Cc1cccc(C(=O)OCC(=O)Nc2nnc(-c3ccccc3)o2)c1O |  | inactive: -16.8% |
| COc1ccc(S(=O)(=O)N2CCN(c3ccccn3)CC2)cc1OC | inconclusive [inhibitor, full curve, poor fit] |  |
| Cc1ccc(NC(=O)Cn2c(CCC(=O)O)ccc2-c2ccc(Cl)cc2)cc1 | inactive |  |
| CCSC(=Nc1ccccc1)C1=C(O)COC1=O | inconclusive [inhibitor, full curve, poor fit] |  |
| Cc1ccsc1/C=C1\CCC(C2CCCC2)C1=O (configuration not stated) | inconclusive [inhibitor, partial curve, poor fit] |  |
| COc1cc(CNn2cnnc2)ccc1OCC(=O)NC1CCCCC1 | inconclusive [inhibitor, full curve, poor fit] |  |
| CSC1=NCCN1C(=O)c1cccs1 | inconclusive [inhibitor, partial curve, poor fit] |  |

| Compound | Potency | activity change, negative = inhibition |
| --- | --- | --- |
| COc1ccc(C(=O)CN(CCC(=O)O)S(=O)(=O)c2ccc([N+](=O)[O-])cc2)cc1 | inconclusive [inhibitor, partial curve, poor fit] |  |
| CCCC(C)NC(=S)Nc1cc(C)cc(C)c1 (configuration not stated) | inconclusive [inhibitor, full curve, poor fit] |  |
| CC(C)CN(C(=O)COC(=O)/C=C/c1ccccc1)C1CCS(=O)(=O)C1 (configuration not stated) | inconclusive [inhibitor, single point] |  |
| O=C1c2cccc3c(O)ccc(c23)C(=O)N1Cc1ccccc1 | inconclusive [inhibitor, full curve, poor fit] |  |
| CC1(c2ccc(OC(F)F)cc2)NC(=O)N(CC(=O)N2CCN(C(=O)c3ccco3)CC2)C1=O (configuration not stated) | inconclusive [inhibitor, partial curve, poor fit] |  |
| COc1ccccc1N1CCN(C(=O)c2cc(C3CC3)on2)CC1 | inconclusive [inhibitor, full curve, poor fit] |  |
| CCCCOc1ccc(C2OC34CCCCC3C(C#N)(C#N)C2(C#N)C(=N)O4)cc1 (configuration not stated) | inconclusive [inhibitor, single point] |  |
| Cc1ccccc1-c1cnn(-c2cccc([N+](=O)[O-])c2)c1N |  | inactive: -5.51% |
| Cc1cc2ncc(-c3cccc(Cl)c3)cn2n1 |  | inactive: 6.48% |
| CCCCn1c(Nc2ccccc2)nc2ccccc21 | inconclusive [inhibitor, full curve, poor fit] |  |
| C=CCNc1nc(C(=O)OCC(=O)c2ccc(F)cc2)cs1 | inconclusive [inhibitor, full curve] |  |
| C(=N\n1cnnc1)/c1cccc(OCCOc2ccccc2)c1 | inconclusive [inhibitor, full curve, poor fit] |  |
| CCn1c(SCC(=O)NCC2CCCO2)nnc1-c1c[nH]c2ccccc12 (configuration not stated) | inconclusive [inhibitor, partial curve, poor fit] |  |
| O=C1CCC/C(=N\NC(=O)COc2ccc(Cl)cc2)C1 | inconclusive [inhibitor, full curve] |  |
| Cc1ccnc(NC(=O)CNC(=O)C23CC4CC(CC(C4)C2)C3)c1 | inconclusive [inhibitor, single point] |  |
| Nc1ncccc1OCc1cccc(C(F)(F)F)c1 |  | inactive: -0.174% |
| COC(=O)c1sccc1NC(=O)Nc1cc(OC)ccc1OC | inconclusive [inhibitor, full curve, poor fit] |  |
| O=C(Nc1ccccc1)c1ccc2c(c1)OCCO2 |  | inactive: -11.3% |
| CC(Cc1ccccc1)C(=O)N(C)Cc1cccnc1 (configuration not stated) | inconclusive [inhibitor, partial curve] |  |
| Cc1cccc(N(C(=O)CNC(=O)c2ccco2)C(C(=O)NC2CCCC2)c2ccncc2)c1C (configuration not stated) | inconclusive [inhibitor, single point] |  |
| CCc1ccccc1-n1c(SCC(=O)NC)nnc1-c1cccnc1 | active: 35.5 µM |  |
